Assay results from patent US12577273B2, “Small molecule modulators of gut bacterial bile acid metabolism” (priority 2019, dated 2026).
Values joined by “and” are separate entries in the source; they are usually repeats but may differ in a detail not shown here. Equal values may be shown once.

Legend:
[1] = tested on: B. theta; experiment: Inhibitor screen in bacteria, B. theta culture; type: cell-based, Bacteroides thetaiotaomicron VPI-5482; conditions: FIG. 2c, 100 μM inhibitor, 21 h, replicates 1-3
Protocol: Bacterial Culturing. All bacterial strains were cultured at 37° C. in Cullen-Haiser Gut (CHG) media (which consists of brain heart infusion media (Bacto™ BHI, BD) supplemented with 1% BBL vitamin K1-hemin solution (BD), 1% trace minerals solution (ATCC), 1% trace vitamins solution (ATCC), 5% fetal bovine serum (Hyclone), 1 g/L cellubiose, 1 g/L maltose, and 1 g/L fructose) or BHI^+ (Bacto™ BHI, BD, supplemented with 5 mg/L hemin, and 2.5 uL/L Vitamin K1). All strains were grown under anaerobic conditions in a anaerobic chamber (Coy Lab Products Airlock) with a gas mix of 5% hydrogen and 20% carbon dioxide nitrogen. Escherichia coli was grown aerobically at 37° C. in LB medium supplemented with ampicillin to select for the pET21b plasmid.
Inhibitor Screen in Bacteria. Bacterial cultures were diluted to OD600 of 0.1 in 4 mL BHI^+, containing 100 μM taurine conjugated bile acid pool 100 μM inhibitors. […] After 21 h, serial dilutions were plated on BHI^+ agar to determine cell viability (CFU/mL). […] The cultures were spun down in a centrifuge at 2,500 g for 5 mins to obtain better separation. The organic layer was then removed and the aqueous layer was extracted again using 2 mL of ethyl acetate.

[2] = molecular target: T1, TGR5 (Homo sapiens, UniProt Q8TDU6); experiment: TGR5 luciferase reporter assay in Caco-2 cells; type: cell-based; conditions: overnight, in the presence of 10 μM LCA
T1 construct: endogenous in cells; host or cells: Caco-2 (ATCC), transiently transfected only with the CRE-luciferase and Renilla reporter plasmids
T1 sequence (Q8TDU6 1-330): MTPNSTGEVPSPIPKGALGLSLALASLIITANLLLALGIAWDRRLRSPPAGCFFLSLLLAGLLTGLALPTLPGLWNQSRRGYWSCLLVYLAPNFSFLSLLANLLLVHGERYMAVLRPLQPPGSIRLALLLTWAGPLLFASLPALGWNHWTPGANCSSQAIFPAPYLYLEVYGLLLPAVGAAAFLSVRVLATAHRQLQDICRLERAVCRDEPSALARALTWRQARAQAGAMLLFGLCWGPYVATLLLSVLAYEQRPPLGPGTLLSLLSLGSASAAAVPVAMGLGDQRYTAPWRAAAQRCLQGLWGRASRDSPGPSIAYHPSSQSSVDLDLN

With `C[C@H](CCC(=O)CF)[C@H]1CC[C@H]2[C@@H]3[C@H](O)C[C@@H]4C[C@H](O)CC[C@]4(C)[C@H]3CC[C@]12C` [Compound 7] the “% deconjugation of TDCA” value ([1]; 100 μM bile acid pool) was 0.33% and 0.00% and 0.20%, the “% deconjugation of TUDCA” value ([1]; 100 μM bile acid pool) was 0.87% and 1.55% and 0.96% and the “% deconjugation of TCA” value ([1]; 100 μM taurine conjugated bile acid pool) was 0.26% and 0.24% and 0.00%. For the same compound, the “TGR5 antagonist activity (in words)” value [2] was “neither agonized nor antagonized TGR5”.
